Laboratory results taken from publication PMC9103030.
Results are given in words; binding and its absence hold for the method and conditions named. Some binding calls cover weakened binding; strength is not graded here.

T1: OsJAZ7 (rice) (UniProt Q8H395)
T1 sequence: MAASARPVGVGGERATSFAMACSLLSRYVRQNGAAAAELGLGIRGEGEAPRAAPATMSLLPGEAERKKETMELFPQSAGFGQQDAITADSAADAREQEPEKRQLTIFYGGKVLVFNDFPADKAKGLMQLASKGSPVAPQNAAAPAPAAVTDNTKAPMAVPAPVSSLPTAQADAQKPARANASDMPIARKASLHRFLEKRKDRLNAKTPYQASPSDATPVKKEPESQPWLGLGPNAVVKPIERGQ

T2: OsJAZ9 (rice) (UniProt Q8GSI0)
T2 sequence: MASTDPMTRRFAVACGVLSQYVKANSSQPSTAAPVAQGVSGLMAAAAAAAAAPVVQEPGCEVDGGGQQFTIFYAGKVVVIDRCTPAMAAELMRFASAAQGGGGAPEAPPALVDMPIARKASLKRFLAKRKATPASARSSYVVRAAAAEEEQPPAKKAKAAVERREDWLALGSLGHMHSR

T3: OsJAZ8 (rice) (UniProt Q69P94)
T3 sequence: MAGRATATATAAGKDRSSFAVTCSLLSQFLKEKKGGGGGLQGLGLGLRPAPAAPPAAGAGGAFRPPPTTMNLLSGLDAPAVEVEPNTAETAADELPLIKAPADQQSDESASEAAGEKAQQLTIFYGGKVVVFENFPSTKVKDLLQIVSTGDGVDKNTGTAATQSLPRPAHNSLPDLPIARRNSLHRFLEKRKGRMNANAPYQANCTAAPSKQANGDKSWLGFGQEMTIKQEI

T4: OsJAZ3 (rice) (UniProt Q6ZJU3)
T4 sequence: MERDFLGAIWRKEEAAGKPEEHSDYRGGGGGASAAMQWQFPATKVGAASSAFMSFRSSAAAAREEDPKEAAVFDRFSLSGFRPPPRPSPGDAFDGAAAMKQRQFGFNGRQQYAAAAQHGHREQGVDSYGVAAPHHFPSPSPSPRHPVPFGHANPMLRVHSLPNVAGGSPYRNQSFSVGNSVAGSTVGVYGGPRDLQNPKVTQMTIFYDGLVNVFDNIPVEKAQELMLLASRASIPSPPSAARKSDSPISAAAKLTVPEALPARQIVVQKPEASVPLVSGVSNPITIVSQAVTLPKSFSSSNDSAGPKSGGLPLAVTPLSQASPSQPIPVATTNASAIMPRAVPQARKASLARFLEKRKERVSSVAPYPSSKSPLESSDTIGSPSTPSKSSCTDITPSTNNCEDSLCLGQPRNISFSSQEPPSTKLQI

T5: OsJAZ6 (rice) (UniProt Q84R94)
T5 sequence: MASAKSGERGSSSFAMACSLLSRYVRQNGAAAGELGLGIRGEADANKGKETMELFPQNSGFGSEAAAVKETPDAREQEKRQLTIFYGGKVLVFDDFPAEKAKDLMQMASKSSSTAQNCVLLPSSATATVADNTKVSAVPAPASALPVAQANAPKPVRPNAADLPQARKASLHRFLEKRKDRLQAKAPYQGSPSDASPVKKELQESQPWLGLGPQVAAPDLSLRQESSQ

T6: OsJAZ4 (rice) (UniProt Q6ES51)
T6 sequence: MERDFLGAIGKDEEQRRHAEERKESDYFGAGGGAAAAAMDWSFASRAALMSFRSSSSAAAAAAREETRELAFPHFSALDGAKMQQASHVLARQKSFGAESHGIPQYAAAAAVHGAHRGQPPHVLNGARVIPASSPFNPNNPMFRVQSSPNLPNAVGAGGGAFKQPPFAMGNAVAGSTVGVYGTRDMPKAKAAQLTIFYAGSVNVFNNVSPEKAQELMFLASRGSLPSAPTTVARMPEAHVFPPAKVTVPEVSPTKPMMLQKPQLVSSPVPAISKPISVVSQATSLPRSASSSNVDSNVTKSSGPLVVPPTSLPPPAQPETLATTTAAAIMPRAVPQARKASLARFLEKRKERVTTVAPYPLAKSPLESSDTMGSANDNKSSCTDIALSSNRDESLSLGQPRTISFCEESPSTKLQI

T7: OsJAZ5 (rice) (UniProt Q7XV97)
T7 sequence: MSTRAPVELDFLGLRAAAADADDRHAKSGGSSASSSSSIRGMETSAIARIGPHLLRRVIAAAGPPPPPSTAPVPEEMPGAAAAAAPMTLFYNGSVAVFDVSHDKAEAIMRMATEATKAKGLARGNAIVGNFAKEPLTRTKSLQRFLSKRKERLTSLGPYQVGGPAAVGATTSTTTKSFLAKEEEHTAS

T8: OsJAZ12 (rice) (UniProt Q7XEZ1)
T8 sequence: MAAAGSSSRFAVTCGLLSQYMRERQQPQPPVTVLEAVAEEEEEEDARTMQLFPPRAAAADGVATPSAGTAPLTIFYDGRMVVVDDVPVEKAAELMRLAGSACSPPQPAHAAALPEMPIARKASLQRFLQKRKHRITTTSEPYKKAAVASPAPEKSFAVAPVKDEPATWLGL

T9: OsJAZ1 (rice) (UniProt Q7XPM8)
T9 sequence: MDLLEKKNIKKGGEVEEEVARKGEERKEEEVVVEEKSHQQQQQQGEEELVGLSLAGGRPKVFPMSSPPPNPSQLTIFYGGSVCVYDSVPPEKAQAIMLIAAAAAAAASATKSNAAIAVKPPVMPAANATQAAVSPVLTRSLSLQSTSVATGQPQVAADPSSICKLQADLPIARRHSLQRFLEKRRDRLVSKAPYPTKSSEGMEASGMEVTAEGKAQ

B1: OsJAZ7 (protein, UniProt Q8H395 1-244)
chain: T1 sequence
B2: OsJAZ1 (protein, UniProt Q7XPM8 1-216)
chain: T9 sequence
B3: OsJAZ8 (protein, UniProt Q69P94 1-232)
chain: T3 sequence
B4: OsJAZ9 (protein, UniProt Q8GSI0 1-179)
chain: T2 sequence
B5: OsJAZ5 (protein, UniProt Q7XV97 1-188)
chain: T7 sequence
B6: OsJAZ12 (protein, UniProt Q7XEZ1 1-171)
chain: T8 sequence
B7: OsJAZ6 (protein, UniProt Q84R94 1-228)
chain: T5 sequence

biological target: T1, OsJAZ7 (rice); assay: two-hybrid; each of 13 full-length OsJAZs as BD (bait, left column) and AD (prey, top row) fusion; yeast Y2HGold; growth on SD/-Leu/-Trp/-His/-Ade; graded strong (++), weak (+), undetectable (-)

Row | binding | Binder
1 | binds | B1
2 | no binding | B2

biological target: T2, OsJAZ9 (rice); assay: as above

Row | binding | Binder
3 | no binding | B3
4 | binds | B4
5 | no binding | B5
6 | no binding | B6

biological target: T3, OsJAZ8 (rice); assay: as above

Row | binding | Binder
7 | no binding | B7
8 | no binding | B3
9 | no binding | B4
10 | no binding | B5
11 | no binding | B2

biological target: T4, OsJAZ3 (rice); assay: as above

Row | binding | Binder
12 | no binding | B7
13 | no binding | B3
14 | no binding | B4
15 | no binding | B5
16 | no binding | B6
17 | no binding | B1
18 | no binding | B2

biological target: T5, OsJAZ6 (rice); assay: as above

Row | binding | Binder
19 | no binding | B7
20 | no binding | B3
21 | no binding | B6

biological target: T6, OsJAZ4 (rice); assay: as above

Row | binding | Binder
22 | no binding | B7
23 | no binding | B3
24 | binds | B4
25 | no binding | B5
26 | no binding | B1
27 | no binding | B2

biological target: T7, OsJAZ5 (rice); assay: as above

Row | binding | Binder
28 | no binding | B3
29 | no binding | B4
30 | no binding | B5
31 | no binding | B6
32 | no binding | B2

biological target: T8, OsJAZ12 (rice); assay: as above

Row | binding | Binder
33 | no binding | B7
34 | no binding | B4
35 | no binding | B5
36 | no binding | B6
37 | no binding | B2

biological target: T9, OsJAZ1 (rice); assay: as above

Row | binding | Binder
38 | no binding | B3
39 | no binding | B5
40 | no binding | B6
41 | no binding | B1
42 | no binding | B2
